A collection of fitness landscapes (doi:10.1016/j.celrep.2020.107928)
In all, about 81,000 sequences were measured (“one-hybrid fitness for binding parS DNA”: median about -0.17, highest 2% from about 0.51 on). The list shows a part of the results.

B1: Caulobacter ParB omega fusion; a variant is named by its letters at X, in order, B8GW30 (parent)
chain: MESVVVGEPGMSEGRRGLGRGLSALLGEVDAAPAQAPGEQLGGSREAPIEILQRNPDQPRRTFREEDLEDLSNSIREKGVLQPILVRPSPDTAGEYQIVAGERAWRAAQRAGLKTVPIMVRELDDLAVLEIGIIENVQRADLNVLEEALSYKVLMEKFERTQENIAQTIGKSXSHVANXMRLLXLPDEVQSYLVSGELTAXHARAIAAAADPVALAKQIIEGGLSVRETEALARKAPNLSAGKSKGGRPPRVKDTDTQALESDLSSVLGLDVSIDHRGSTGTLTITYATLEQLDDLCNRLTRGI

Variants of: B1
Assay: one-hybrid fitness for binding parS DNA (scaled: cognate 1, non-cognate 0); higher = stronger binding
Details: with parS DNA site
Summary of the method: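 The reporter was HIS3, with the binding site 19 bp from the promoter, in E. coli USO used for bacterial one-hybrid selection of Caulobacter ParB libraries with four specificity codons randomised. Growth was on M9 lacking histidine, with 0.1 mM IPTG and 5 mM 3-AT, for 48 hours at 37°C. Illumina sequencing covered plasmids before and after selection; three replicate libraries were pooled and variants with under 10 reads dropped. A fitness score is the log change in variant-to-wild-type read ratio, rescaled to the cognate and non-cognate references.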

KTDC and ELRT cannot be ordered by “one-hybrid fitness for binding parS DNA” value: at most 0.2 for the first, at most 0.2 for the second.

TCFA and PSAW cannot be ordered by “one-hybrid fitness for binding parS DNA” value: at most 0.2 for the first, at most 0.2 for the second.

QLGD and SHIT cannot be ordered by “one-hybrid fitness for binding parS DNA” value: at most 0.2 for the first, at most 0.2 for the second.

ASHL and DCNS cannot be ordered by “one-hybrid fitness for binding parS DNA” value: at most 0.2 for the first, at most 0.2 for the second.

SIVR and TSVI cannot be ordered by “one-hybrid fitness for binding parS DNA” value: at most 0.2 for the first, at most 0.2 for the second.

QCHM and VHVF cannot be ordered by “one-hybrid fitness for binding parS DNA” value: at most 0.2 for the first, at most 0.2 for the second.

HVKN and PALH cannot be ordered by “one-hybrid fitness for binding parS DNA” value: at most 0.2 for the first, at most 0.2 for the second.

DFMA and FNFR cannot be ordered by “one-hybrid fitness for binding parS DNA” value: at most 0.2 for the first, at most 0.2 for the second.

WAHR and SGNT cannot be ordered by “one-hybrid fitness for binding parS DNA” value: at most 0.2 for the first, at most 0.2 for the second.

CPVS and IQTR cannot be ordered by “one-hybrid fitness for binding parS DNA” value: at most 0.2 for the first, at most 0.2 for the second.

YEYG and YTSR cannot be ordered by “one-hybrid fitness for binding parS DNA” value: at most 0.2 for the first, at most 0.2 for the second.

LEQR and PGQR cannot be ordered by “one-hybrid fitness for binding parS DNA” value: at most 0.2 for the first, at most 0.2 for the second.

HPPE and TFPS cannot be ordered by “one-hybrid fitness for binding parS DNA” value: at most 0.2 for the first, at most 0.2 for the second.

ASAL and PAES cannot be ordered by “one-hybrid fitness for binding parS DNA” value: at most 0.2 for the first, at most 0.2 for the second.

RSLE and ESIP cannot be ordered by “one-hybrid fitness for binding parS DNA” value: at most 0.2 for the first, at most 0.2 for the second.

Compared with RVTC, SFFV is lower in “one-hybrid fitness for binding parS DNA” value: 0.982 for the first, at most 0.2 for the second.

GNDK and MNHL cannot be ordered by “one-hybrid fitness for binding parS DNA” value: at most 0.2 for the first, at most 0.2 for the second.

PTPP and ARWL cannot be ordered by “one-hybrid fitness for binding parS DNA” value: at most 0.2 for the first, at most 0.2 for the second.

RTCP and FATW cannot be ordered by “one-hybrid fitness for binding parS DNA” value: at most 0.2 for the first, at most 0.2 for the second.

AMAN and HYTA cannot be ordered by “one-hybrid fitness for binding parS DNA” value: at most 0.2 for the first, at most 0.2 for the second.

Compared with TWEE, RYHH is higher in “one-hybrid fitness for binding parS DNA” value: at most 0.2 for the first, 0.213 for the second.

VTTR and ALFC cannot be ordered by “one-hybrid fitness for binding parS DNA” value: at most 0.2 for the first, at most 0.2 for the second.

CYAT and PGLS cannot be ordered by “one-hybrid fitness for binding parS DNA” value: at most 0.2 for the first, at most 0.2 for the second.

DQNL and SLKQ cannot be ordered by “one-hybrid fitness for binding parS DNA” value: at most 0.2 for the first, at most 0.2 for the second.

QDPS and NSKT cannot be ordered by “one-hybrid fitness for binding parS DNA” value: at most 0.2 for the first, at most 0.2 for the second.

STNQ and CYPR cannot be ordered by “one-hybrid fitness for binding parS DNA” value: at most 0.2 for the first, at most 0.2 for the second.

ACLY and RWAQ cannot be ordered by “one-hybrid fitness for binding parS DNA” value: at most 0.2 for the first, at most 0.2 for the second.

TPFD and FHVY cannot be ordered by “one-hybrid fitness for binding parS DNA” value: at most 0.2 for the first, at most 0.2 for the second.

LHSV and KNTH cannot be ordered by “one-hybrid fitness for binding parS DNA” value: at most 0.2 for the first, at most 0.2 for the second.

DVPE and CHAY cannot be ordered by “one-hybrid fitness for binding parS DNA” value: at most 0.2 for the first, at most 0.2 for the second.

AVKP and FAGQ cannot be ordered by “one-hybrid fitness for binding parS DNA” value: at most 0.2 for the first, at most 0.2 for the second.

WMAQ and MDFK cannot be ordered by “one-hybrid fitness for binding parS DNA” value: at most 0.2 for the first, at most 0.2 for the second.

PTFI and QGAC cannot be ordered by “one-hybrid fitness for binding parS DNA” value: at most 0.2 for the first, at most 0.2 for the second.

AHLM and VKLY cannot be ordered by “one-hybrid fitness for binding parS DNA” value: at most 0.2 for the first, at most 0.2 for the second.

HRTW and NPYM cannot be ordered by “one-hybrid fitness for binding parS DNA” value: at most 0.2 for the first, at most 0.2 for the second.

AVGT and PYKW cannot be ordered by “one-hybrid fitness for binding parS DNA” value: at most 0.2 for the first, at most 0.2 for the second.

PSTL and QTMF cannot be ordered by “one-hybrid fitness for binding parS DNA” value: at most 0.2 for the first, at most 0.2 for the second.

GSLE and PLDP cannot be ordered by “one-hybrid fitness for binding parS DNA” value: at most 0.2 for the first, at most 0.2 for the second.

TMGV and TYGG cannot be ordered by “one-hybrid fitness for binding parS DNA” value: at most 0.2 for the first, at most 0.2 for the second.

AVSS and VDQR cannot be ordered by “one-hybrid fitness for binding parS DNA” value: at most 0.2 for the first, at most 0.2 for the second.

NYKW and TSEC cannot be ordered by “one-hybrid fitness for binding parS DNA” value: at most 0.2 for the first, at most 0.2 for the second.

HYAT and EDGG cannot be ordered by “one-hybrid fitness for binding parS DNA” value: at most 0.2 for the first, at most 0.2 for the second.

TTEE and YQCG cannot be ordered by “one-hybrid fitness for binding parS DNA” value: at most 0.2 for the first, at most 0.2 for the second.

LQDA and HDPW cannot be ordered by “one-hybrid fitness for binding parS DNA” value: at most 0.2 for the first, at most 0.2 for the second.

NRIS and ALMA cannot be ordered by “one-hybrid fitness for binding parS DNA” value: at most 0.2 for the first, at most 0.2 for the second.

NQMS and KKWT cannot be ordered by “one-hybrid fitness for binding parS DNA” value: at most 0.2 for the first, at most 0.2 for the second.

LMSS and ALSL cannot be ordered by “one-hybrid fitness for binding parS DNA” value: at most 0.2 for the first, at most 0.2 for the second.

LGRG and DSLM cannot be ordered by “one-hybrid fitness for binding parS DNA” value: at most 0.2 for the first, at most 0.2 for the second.

EYTV and PETW cannot be ordered by “one-hybrid fitness for binding parS DNA” value: at most 0.2 for the first, at most 0.2 for the second.

FNGE and KKKV cannot be ordered by “one-hybrid fitness for binding parS DNA” value: at most 0.2 for the first, at most 0.2 for the second.

LRTT and IFRR cannot be ordered by “one-hybrid fitness for binding parS DNA” value: at most 0.2 for the first, at most 0.2 for the second.

LCLE and RQKE cannot be ordered by “one-hybrid fitness for binding parS DNA” value: at most 0.2 for the first, at most 0.2 for the second.

DSQD and IPYW cannot be ordered by “one-hybrid fitness for binding parS DNA” value: at most 0.2 for the first, at most 0.2 for the second.

Going from RFTF to NYDL, the “one-hybrid fitness for binding parS DNA” value falls from 0.202 to at most 0.2.

SKLS and VKCF cannot be ordered by “one-hybrid fitness for binding parS DNA” value: at most 0.2 for the first, at most 0.2 for the second.

ETHC and PHYL cannot be ordered by “one-hybrid fitness for binding parS DNA” value: at most 0.2 for the first, at most 0.2 for the second.

RREF and VVIC cannot be ordered by “one-hybrid fitness for binding parS DNA” value: at most 0.2 for the first, at most 0.2 for the second.

SYRH and MEAG cannot be ordered by “one-hybrid fitness for binding parS DNA” value: at most 0.2 for the first, at most 0.2 for the second.

DSDK and NGYD cannot be ordered by “one-hybrid fitness for binding parS DNA” value: at most 0.2 for the first, at most 0.2 for the second.

VYAL and GAHC cannot be ordered by “one-hybrid fitness for binding parS DNA” value: at most 0.2 for the first, at most 0.2 for the second.

RRMK and IETG cannot be ordered by “one-hybrid fitness for binding parS DNA” value: at most 0.2 for the first, at most 0.2 for the second.

ARSS and SWTG cannot be ordered by “one-hybrid fitness for binding parS DNA” value: at most 0.2 for the first, at most 0.2 for the second.

SPMV and GQNG cannot be ordered by “one-hybrid fitness for binding parS DNA” value: at most 0.2 for the first, at most 0.2 for the second.

VFWT and YSMR cannot be ordered by “one-hybrid fitness for binding parS DNA” value: at most 0.2 for the first, at most 0.2 for the second.

GFLT and AFNR cannot be ordered by “one-hybrid fitness for binding parS DNA” value: at most 0.2 for the first, at most 0.2 for the second.

MLTD and EILS cannot be ordered by “one-hybrid fitness for binding parS DNA” value: at most 0.2 for the first, at most 0.2 for the second.

KLAN and SMGH cannot be ordered by “one-hybrid fitness for binding parS DNA” value: at most 0.2 for the first, at most 0.2 for the second.

First: RKGC
Second: NIAR
The “one-hybrid fitness for binding parS DNA” value of the first is higher: 0.827 for the first, at most 0.2 for the second.

HYPC and PYVF cannot be ordered by “one-hybrid fitness for binding parS DNA” value: at most 0.2 for the first, at most 0.2 for the second.

PTFF and AVAP cannot be ordered by “one-hybrid fitness for binding parS DNA” value: at most 0.2 for the first, at most 0.2 for the second.

AWGV and DQMR cannot be ordered by “one-hybrid fitness for binding parS DNA” value: at most 0.2 for the first, at most 0.2 for the second.

EYAG and RWYR cannot be ordered by “one-hybrid fitness for binding parS DNA” value: at most 0.2 for the first, at most 0.2 for the second.

PPTF and KDVA cannot be ordered by “one-hybrid fitness for binding parS DNA” value: at most 0.2 for the first, at most 0.2 for the second.

MQDR and HSKM cannot be ordered by “one-hybrid fitness for binding parS DNA” value: at most 0.2 for the first, at most 0.2 for the second.

First: GDIS
Second: RHTS
The “one-hybrid fitness for binding parS DNA” value of the first is lower: at most 0.2 for the first, 0.893 for the second.

LGTW and TPRP cannot be ordered by “one-hybrid fitness for binding parS DNA” value: at most 0.2 for the first, at most 0.2 for the second.

DCVT was tested, and the “one-hybrid fitness for binding parS DNA” value was at most 0.2.
